# Reference: paper PMC6919601, “Identification of Plasmodium dipeptidyl aminopeptidase allosteric inhibitors by high throughput screening” (PLoS ONE, 2019)
# The whole screen tested about 110,000 compounds, of which about 230 (0.21%) showed an effect of 50% or more. Some of the results follow.
# Target: DPAP1 (Plasmodium falciparum, UniProt Q8IIJ9)
# Experiment: primary screen, percent inhibition; read by cleavage of a fluorogenic dipeptide substrate; higher = more effect of the substance
# Design: species or system P. falciparum D10 trophozoite lysates; single well
# 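Also: 30 min substrate incubation versus DMSO and 10 µM JCP410 controls.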
# DPAP1, sequence (Q8IIJ9 whole entry, looked up): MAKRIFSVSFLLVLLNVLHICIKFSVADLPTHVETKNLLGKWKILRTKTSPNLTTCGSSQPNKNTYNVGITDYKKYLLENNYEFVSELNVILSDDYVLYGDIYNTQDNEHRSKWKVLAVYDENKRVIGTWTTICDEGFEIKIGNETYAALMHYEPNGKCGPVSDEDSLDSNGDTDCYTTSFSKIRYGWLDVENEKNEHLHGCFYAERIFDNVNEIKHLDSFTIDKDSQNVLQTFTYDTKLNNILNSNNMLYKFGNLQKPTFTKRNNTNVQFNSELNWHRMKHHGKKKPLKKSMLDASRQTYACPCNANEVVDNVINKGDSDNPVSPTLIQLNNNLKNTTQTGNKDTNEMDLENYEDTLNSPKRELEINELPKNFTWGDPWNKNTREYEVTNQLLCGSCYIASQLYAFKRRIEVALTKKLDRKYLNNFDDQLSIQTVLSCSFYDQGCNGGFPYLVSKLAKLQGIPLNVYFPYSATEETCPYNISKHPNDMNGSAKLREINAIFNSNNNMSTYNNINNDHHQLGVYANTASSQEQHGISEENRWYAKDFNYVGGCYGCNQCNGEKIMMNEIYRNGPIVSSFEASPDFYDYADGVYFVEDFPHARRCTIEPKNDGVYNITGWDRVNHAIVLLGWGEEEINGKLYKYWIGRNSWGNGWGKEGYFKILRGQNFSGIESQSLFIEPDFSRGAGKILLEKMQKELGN
row,Structure (SMILES),% Inhibition @ 10 uM [%]
1,CC1=C(C)CC2C(=O)N(c3cccc(C(=O)O)c3)C(=O)C2C1 (centres unmarked),7.35
2,CNC(=O)C1CCCN(c2nnc(-n3c(C)ccc3C)s2)C1 (centres unmarked),-0.637
3,COc1ccc(-c2cc(C(=O)N3CCCCC3)c3c(-c4ccc(F)cc4)[nH]nc3n2)cc1OC,1.37
4,COc1ccc(S(=O)(=O)Nc2ccc(N3CCOCC3)cc2)cc1,-1.05
5,CCOC(=O)C1=C(C)N(C)C(C)=C(C(=O)OCC)C1c1ccccc1F,-3.44
6,Cc1cccc(CC(=O)NCCn2ccc3ccccc32)c1,-2.87
7,N#CCNC(=O)C(Cc1cccc(Br)c1)CS(=O)(=O)Cc1ccccc1 (centres unmarked),-1.83
8,NS(=O)(=O)c1ccc(CCNC(=O)CCc2nc(O)c3c4c(sc3n2)CCCC4)cc1,-3.27
9,C=CCSC1=C(C#N)C2(CCCC2)C(C#N)C(=O)N1 (centres unmarked),-0.736
10,CCOC(=O)N1CCN(C(=O)c2ccc3c(Cl)c4c(nc3c2)CCCC4)CC1,-2.45
11,CC(=O)N1CCN(CC/N=C/C2=C(O)CC(c3ccco3)CC2=O)CC1 (centres unmarked),0.121
12,COC(=O)c1c(-c2ccc(C)cc2)csc1N,10.2
13,COc1cc(SC)ccc1C(=O)N1CCCCCC1,-2.15
14,CCN(CC)CCNc1nc2cc(Cl)ccc2[nH]1,4.88
15,O=[N+]([O-])c1ccccc1S(=O)(=O)N1CCCC1,6.31
16,CN(Cc1ccccc1)C(=O)c1ccc(CNS(=O)(=O)c2ccc(Br)cc2)cc1,-7.16
17,Cc1cccc(CCNC(=O)c2nn(C)c3c2CS(=O)(=O)c2ccccc2-3)c1,5.82
18,O=C(Nc1ccc(Cl)cc1)Nc1cccc(C(F)(F)F)c1,-4.01
19,CCOC(=O)c1cc(C)n(CC2CCC(C(=O)NCc3cccnc3)CC2)c1C (centres unmarked),-0.241
20,O=C(NCc1ccco1)C1CCN(S(=O)(=O)c2ccc(Cl)cc2)CC1,2.38
21,Cc1ccc2[nH]c3c(c2c1)CCc1nc(O)c(C#N)cc1-3,2.86
22,O=C(O)c1cccc(NS(=O)(=O)c2ccc(S(=O)(=O)N3CCOCC3)cc2)c1,-3.39
23,O=S(=O)(c1ccccc1)N(C1CCCC1)C1CCCC1,2.23
24,CC[C@H](NC(=O)[C@H](CC1(C)CCCC1)/N=C(\C)NS(=O)(=O)c1ccccc1)C(=O)c1nc2ccccc2o1,-8.36
25,Cc1nc2ncnn2c(C)c1CCC(=O)N1CCc2ccccc2C1,4.54

row,Structure (SMILES),% Inhibition @ 10 uM [%]
1,CCOC(=O)/C(C#N)=C\c1c2ccccc2cc2ccccc12,2.76
2,CC(=O)c1c(S)nc(-c2ccccc2)nc1N1CCN(C)CC1,2.05
3,CCOC(=O)Cn1c(=O)sc2ccccc21,0.135
4,CN(C)CCCNC(=O)c1cc2ccccc2oc1=O,-3.53
5,CNC(=O)c1sc2nc(-c3ccccc3)cn2c1C,3.19
6,O=C(CCc1c[nH]c2ccccc12)NCc1ccco1,1.92
7,CCn1cc(C=O)c2cc(S(=O)(=O)N3CCOCC3)ccc21,2.5
8,c1ccc2c3c([nH]c2c1)CCCCC3,-1.44
9,Oc1ccnc2c1ccc1nsnc12,4.12
10,Cn1c(=O)[nH]c(=O)c2c1nc(N1CCNCC1)n2CCCc1ccccc1,-6.22
11,Cc1cccc2sc(N(CCCN(C)C)C(=O)c3ccc(S(=O)(=O)N(C)C)cc3)nc12,-0.0255
12,Cc1nnc(NC(=O)CSc2nc3c(c(=O)n2Cc2ccccc2)SCC3)s1,9.4
13,COC(=O)C1=C(C)N(Cc2ccccc2)C(=O)C1(NC(=O)c1ccc(C(C)(C)C)cc1)C(F)(F)F (centres unmarked),0.221
14,O=C1C2C3C=CC(CC3)C2C(=O)N1c1cccc(Br)c1 (centres unmarked),-5.13
15,Cc1c(C(=O)NCCN(C)C)oc2ccc3c(c12)C(=O)CC(C)(c1ccc(Cl)cc1)O3 (centres unmarked),1.22
16,Cc1ccccc1S(=O)(=O)NC(=O)NS(=O)(=O)c1ccccc1Cl,0.716
17,N/C(=N\N=C\c1ccccc1O)c1nonc1N,1.91
18,CC1CC2(CC(C)N(C)CC2C)Nc2ccccc21 (centres unmarked),5.48
19,Nc1cc(-c2ccccc2)nc2cc(-c3ccccc3)nn12,2.65
20,Cc1ccc(S(=O)(=O)/N=C2/C=C(Sc3nc[nH]n3)C(=O)c3ccccc32)cc1,1.74
21,COc1ccc(CN2C(=O)c3cccnc3C2=O)cc1S(=O)(=O)NCCCc1ccccc1,-6.14
22,CCOC(=O)C1=C(C)OC(N)=C(C#N)C1c1ccc(F)c(Br)c1 (centres unmarked),-8.76
23,CC1(C)CC(=O)CC(O)(C(F)(F)F)O1 (centres unmarked),-0.216
24,COc1ccc(NC(=O)c2c(NC(=O)CN3CCCC(C)C3)sc3c2CCC3)c(OC)c1 (centres unmarked),7.31
25,CCOC(=O)N1CCC(NCCN2CCCCC2)CC1,-4.75
